From the supplement of paper PMC4967469

Experiments:
Experiment in all cases: Viability of human cancer cell lines after 72 h of drug (GDSC screen)
[1] = compound: O=C(NC1CC1)c1cccc(-c2ccc3c(NC(=O)C4CC4)n[nH]c3c2)c1 [XMD13-2]; settings: top dose 10.24 µM; top dose inferred
Protocol: (§1)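 Human cancer cell lines in 384-well plates, medium with 10% serum, drug for 72 h over a 256-fold dose range (nine 2-fold or five 4-fold steps up to the top dose). Adherent lines were fixed and stained with the nucleic acid dye Syto60, suspension lines read with resazurin; signal relative to control wells, capped at 0 and 100%. One two-parameter sigmoid per drug and line, fitted in a mixed model over all curves with the slope shared within a line.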

[2] = compound: CC1(C)CC(=O)c2c(C(F)(F)F)nn(-c3ccc(C(N)=O)c(N[C@H]4CC[C@H](O)CC4)c3)c2C1 [SNX-2112]; settings: top dose 2.56 µM
Protocol: as §1

[3] = compound: CC[C@]1(O)C[C@@H]2CN(CCc3c([nH]c4ccccc34)[C@@](C(=O)OC)(c3cc4c(cc3OC)N(C)[C@H]3[C@@](O)(C(=O)OC)[C@H](OC(C)=O)[C@]5(CC)C=CCN6CC[C@]43[C@@H]65)C2)C1 [Vinblastine]; settings: top dose 0.1 µM; top dose inferred
Protocol: as §1

[4] = compound: CN(c1ncccc1CNc1nc(Nc2ccc3c(c2)CC(=O)N3)ncc1C(F)(F)F)S(C)(=O)=O [PF-562271]; settings: top dose 2.56 µM; top dose inferred
Protocol: as §1

[5] = compound: CN(C)C/C=C/C(=O)Nc1cc2c(Nc3ccc(F)c(Cl)c3)ncnc2cc1O[C@H]1CCOC1 [Afatinib]
Protocol: as §1

[6] = top dose 0.5 µM, screen: GDSC drug entry 1032
[7] = top dose 10 µM, screen: GDSC drug entry 1377, top dose inferred

Cell Line	AUC [1]	IC50 [1] [nM]	AUC [2]	IC50 [2] [nM]	AUC [3]	IC50 [3] [nM]	AUC [4]	IC50 [4] [nM]	AUC [5, 6]	IC50 [5, 6] [nM]	AUC [5, 7]	IC50 [5, 7] [nM]
LU-165 (small cell lung carcinoma, suspension)	0.979	> 10200	0.737	839	0.988	> 100	0.969	> 2560	0.988	> 500	0.968	> 10000
LXF-289 (lung adenocarcinoma, adherent)	0.939	> 10200	0.651	417	0.502	6.34	0.889	> 2560	0.979	> 500	0.937	> 10000
LoVo (large intestine, adherent)	0.945	> 10200	0.76	909	0.503	6.37	0.918	> 2560	0.927	> 500	0.896	> 10000
M14 (melanoma, adherent)	0.986	> 10200	0.561	237	0.575	10.2	0.983	> 2560	0.984	> 500	0.978	> 10000
M059J (glioma, adherent)	0.887	> 10200	0.439	108	0.634	–	0.904	> 2560	0.982	> 500	0.982	> 10000
MC116 (B-cell lymphoma, suspension)	0.926	7220	0.225	34.7	0.497	6.15	0.966	2510	0.999	> 500	0.999	> 10000
MC-CAR (haematopoietic neoplasm, suspension)	0.821	5140	0.214	26.2	0.492	5.96	0.95	> 2560	0.989	> 500	0.974	> 10000
MDA-MB-330 (breast, adherent)	0.982	> 10200	0.666	496	0.855	98.1	0.981	> 2560	0.774	224	0.821	6860
MDA-MB-361 (breast, adherent)	0.954	> 10200	0.493	153	0.303	1.75	0.963	> 2560	0.951	> 500	0.838	6690
MDA-MB-415 (breast, adherent)	0.98	> 10200	0.97	> 2560	0.674	22.7	0.959	> 2560	0.98	> 500	0.965	> 10000
MDST8 (large intestine, adherent)	0.962	> 10200	0.404	87.6	0.525	7.29	0.973	> 2560	0.951	> 500	0.942	> 10000
ME-1 (acute myeloid leukaemia, suspension)	0.986	> 10200	0.764	993	0.943	> 100	0.988	> 2560	0.988	> 500	0.987	> 10000
MEG-01 (chronic myeloid leukaemia, suspension)	0.919	> 10200	0.358	66.5	0.635	14.4	0.957	> 2560	0.984	> 500	0.956	> 10000
MEL-JUSO (melanoma, adherent)	0.903	> 10200	0.321	47.3	0.631	15	0.84	2060	0.984	> 500	0.972	> 10000
MFE-280 (endometrium, adherent)	0.911	> 10200	0.665	524	0.918	> 100	0.923	> 2560	0.982	> 500	0.971	> 10000
MFE-296 (endometrium, adherent)	0.968	> 10200	0.914	> 2560	0.488	5.78	0.858	2360	0.979	> 500	0.984	> 10000
MFM-223 (breast, adherent)	0.979	> 10200	0.801	1230	0.589	11	0.989	> 2560	0.989	> 500	0.983	> 10000
MG-63 (osteosarcoma, adherent)	0.981	> 10200	0.982	> 2560	0.644	16.7	0.712	706	0.949	> 500	–	–
MHH-ES-1 (Ewing sarcoma, adherent)	0.795	4690	0.237	28.1	0.4	3.34	0.85	1910	0.975	> 500	0.95	> 10000
MHH-NB-11 (neuroblastoma, adherent)	0.844	8420	0.532	198	0.762	39.2	0.949	> 2560	0.957	> 500	–	–
MHH-PREB-1 (B-cell leukaemia, suspension)	0.902	> 10200	0.298	46.4	0.369	2.84	0.953	> 2560	0.983	> 500	0.939	> 10000
MIA-PaCa-2 (pancreas, adherent)	0.954	> 10200	0.952	> 2560	0.464	4.93	0.909	> 2560	0.983	> 500	0.983	> 10000

Cell Line	AUC [1]	IC50 [1] [nM]	AUC [2]	IC50 [2] [nM]	AUC [3]	IC50 [3] [nM]	AUC [4]	IC50 [4] [nM]	AUC [5, 6]	IC50 [5, 6] [nM]	AUC [5, 7]	IC50 [5, 7] [nM]
MKN28 (stomach, adherent)	0.955	> 10200	0.795	1220	0.596	11.5	0.897	> 2560	0.973	> 500	–	–
MKN45 (stomach, adherent)	0.946	> 10200	0.728	856	0.685	23.8	0.905	> 2560	0.979	> 500	0.958	> 10000
ML-2 (acute myeloid leukaemia, suspension)	0.806	4510	0.18	20.3	0.562	9.03	0.871	1970	0.988	> 500	0.989	> 10000
MLMA (hairy cell leukaemia, semi-adherent)	0.792	4670	0.318	49.4	0.485	5.68	0.937	> 2560	0.983	> 500	0.961	> 10000
MMAC-SF (melanoma, adherent)	0.963	> 10200	0.987	> 2560	0.639	15.4	0.968	> 2560	0.982	> 500	0.984	> 10000
MN-60 (B-cell leukaemia, suspension)	0.951	> 10200	0.583	273	0.924	> 100	0.961	> 2560	0.987	> 500	0.986	> 10000
MOG-G-CCM (glioma, adherent)	0.837	8550	0.394	77.5	0.412	3.44	0.84	2210	0.983	> 500	0.974	> 10000
MOG-G-UVW (glioma, adherent)	0.886	> 10200	0.755	847	0.233	1.08	0.91	> 2560	0.985	> 500	0.905	> 10000
MOLM-13 (acute myeloid leukaemia, suspension)	0.821	5430	0.139	13.2	0.448	4.55	0.571	247	0.983	> 500	0.961	> 10000
MOLP-8 (myeloma, suspension)	0.712	2470	0.244	30.4	0.732	27.9	0.83	1520	0.984	> 500	0.977	> 10000
MOLT-4 (lymphoblastic leukaemia, suspension)	0.886	7640	0.252	36.8	0.452	4.75	0.92	> 2560	0.985	> 500	0.96	> 10000
MONO-MAC-6 (acute myeloid leukaemia, suspension)	0.926	> 10200	0.22	23	0.49	5.88	0.798	1300	0.972	> 500	0.924	> 10000
MPP-89 (mesothelioma, adherent)	0.97	> 10200	0.972	> 2560	0.632	16.2	0.972	> 2560	0.938	> 500	0.922	> 10000
MRK-nu-1 (breast, suspension)	0.931	> 10200	0.565	237	0.918	> 100	0.869	2040	0.99	> 500	0.989	> 10000
MS751 (cervix, adherent)	0.908	> 10200	0.714	608	0.453	4.71	0.959	> 2560	0.967	> 500	0.978	> 10000
MS-1 (small cell lung carcinoma, suspension)	0.871	7930	0.294	45.3	0.847	62.2	0.95	> 2560	0.988	> 500	0.991	> 10000
MSTO-211H (mesothelioma, adherent)	0.989	> 10200	0.965	> 2560	0.584	10.3	0.99	> 2560	0.991	> 500	0.99	> 10000
MY-M12 (leukaemia, suspension)	0.458	484	0.249	27.3	0.632	15.2	0.962	> 2560	0.981	> 500	–	–
MZ1-PC (pancreas, adherent)	0.884	> 10200	0.412	86.8	0.671	21.1	0.792	1480	0.979	> 500	0.871	> 10000
MZ2-MEL (melanoma, adherent)	0.889	> 10200	0.414	89.4	0.562	9.49	0.899	> 2560	0.983	> 500	0.93	> 10000
Mewo (melanoma, adherent)	0.962	> 10200	0.961	> 2560	0.569	10.1	0.984	> 2560	0.974	> 500	0.951	> 10000

By IC50 is meant the dose at which the fit gives 50% viability; a fit beyond the top or the lowest dose is shown as a bound at that dose. AUC, from the same fit, is the share of area under the viability curve across the 256-fold dose range; it is 1 without any effect and falls as sensitivity rises. For part of these data: The top dose, if marked as inferred, was derived from the fitted curves, not read from the paper. For part of these data: An entry number marks a drug with two screens in the source, which often give different values.
